According to the supplement of paper PMC4967469:
Lines with a small IC50 respond at low doses; a limit (>, <) means that the fit lies beyond the doses tested. The AUC spans the tested range (256-fold, ending at the top dose) of the same fit; the more sensitive the line, the further below 1. For some of these results: Any top dose called inferred was calculated from the reported fits.

Assays:
Test in all cases: Viability of human cancer cell lines after 72 h of drug (GDSC screen)
[1] = compound: O=C(O)c1ccc(-c2c[nH]c3ncc(-c4ccccc4)cc23)cc1C1CCCC1 [GSK-650394]; conditions: top dose 16 µM; top dose inferred
Description: (§1)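 Human cancer cell lines in 384-well plates, medium with 10% serum, drug for 72 h over a 256-fold dose range (nine 2-fold or five 4-fold steps up to the top dose). Adherent lines were fixed and stained with the nucleic acid dye Syto60, suspension lines read with resazurin; signal relative to control wells, capped at 0 and 100%. One two-parameter sigmoid per drug and line, fitted in a mixed model over all curves with the slope shared within a line.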

[2] = compound: COc1cc(C(=O)NC2CCN(C)CC2)ccc1Nc1ncc2c(n1)N(C1CCCC1)C(C)CC(=O)N2C [NPK76-II-72-1]; conditions: top dose 10.24 µM; top dose inferred
Description: as §1

[3] = compound: COc1ccc(C(=O)CC2(O)C(=O)Nc3c(Cl)ccc(Cl)c32)cc1 [YK 4-279]; conditions: top dose 10 µM
Description: as §1

[4] = compound: NC(=O)Nc1cc(-c2cccc(F)c2)sc1C(=O)N[C@H]1CCCNC1 [AZD7762]; conditions: top dose 2 µM
Description: as §1

[5] = compound: Cc1ccc2nc(NCCN)c3ncc(C)n3c2c1 [BMS-345541]; conditions: top dose 16 µM
Description: as §1

[6] = compound: Oc1nc(-c2ccc(C(F)(F)F)cc2)nc2c1CSCC2 [XAV 939]; conditions: top dose 5 µM; top dose inferred
Description: as §1

[7] = compound: C=C(c1ccc(C(=O)O)cc1)c1cc2c(cc1C)C(C)(C)CCC2(C)C [Bexarotene]; conditions: top dose 8 µM
Description: as §1

HeLa (cervix, adherent)
AUC [1]: 0.742 | IC50 [1]: 4.75 µM | AUC [2]: 0.944 | IC50 [2]: > 10.2 µM | AUC [3]: 0.629 | IC50 [3]: 1.39 µM | AUC [4]: 0.751 | IC50 [4]: 0.631 µM | AUC [5]: 0.902 | IC50 [5]: > 16 µM | AUC [6]: 0.899 | IC50 [6]: > 5 µM

LN-229 (glioma, adherent)
AUC [1]: 0.956 | IC50 [1]: > 16 µM | AUC [2]: 0.985 | IC50 [2]: > 10.2 µM | AUC [3]: 0.703 | IC50 [3]: 2.32 µM | AUC [7]: 0.975 | IC50 [7]: > 8 µM | AUC [4]: 0.698 | IC50 [4]: 0.449 µM | AUC [6]: 0.983 | IC50 [6]: > 5 µM

MCF7 (breast, adherent)
AUC [1]: 0.555 | AUC [2]: 0.986 | IC50 [2]: > 10.2 µM | AUC [3]: 0.786 | IC50 [3]: 4.48 µM | AUC [4]: 0.936 | IC50 [4]: > 2 µM | AUC [5]: 0.982 | IC50 [5]: > 16 µM | AUC [6]: 0.976 | IC50 [6]: > 5 µM

MDA-MB-468 (breast, adherent)
AUC [2]: 0.866 | IC50 [2]: 8.53 µM | AUC [3]: 0.75 | IC50 [3]: 3.16 µM | AUC [7]: 0.967 | IC50 [7]: > 8 µM | AUC [4]: 0.778 | IC50 [4]: 0.778 µM | AUC [5]: 0.895 | IC50 [5]: > 16 µM | AUC [6]: 0.978 | IC50 [6]: > 5 µM

NCI-H358 (lung adenocarcinoma, adherent)
AUC [1]: 0.749 | IC50 [1]: 5.69 µM | AUC [2]: 0.732 | IC50 [2]: 3.18 µM | AUC [3]: 0.792 | IC50 [3]: 5.1 µM | AUC [4]: 0.797 | IC50 [4]: 1.07 µM | AUC [5]: 0.748 | IC50 [5]: 5.64 µM | AUC [6]: 0.965 | IC50 [6]: > 5 µM

PEO1 (ovary, adherent)
AUC [2]: 0.833 | IC50 [2]: 7 µM | AUC [3]: 0.75 | IC50 [3]: 3.38 µM | AUC [4]: 0.505 | IC50 [4]: 0.129 µM | AUC [5]: 0.906 | IC50 [5]: > 16 µM | AUC [6]: 0.965 | IC50 [6]: > 5 µM

QGP-1 (pancreas, adherent)
AUC [2]: 0.853 | IC50 [2]: > 10.2 µM | AUC [3]: 0.856 | IC50 [3]: > 10 µM | AUC [4]: 0.962 | IC50 [4]: > 2 µM | AUC [5]: 0.907 | IC50 [5]: > 16 µM | AUC [6]: 0.976 | IC50 [6]: > 5 µM

RCC-AB (kidney, adherent)
AUC [2]: 0.926 | IC50 [2]: > 10.2 µM | AUC [3]: 0.801 | IC50 [3]: 6.69 µM | AUC [4]: 0.693 | IC50 [4]: 0.518 µM | AUC [5]: 0.846 | IC50 [5]: > 16 µM | AUC [6]: 0.933 | IC50 [6]: > 5 µM

RCC-JW (kidney, adherent)
AUC [2]: 0.967 | IC50 [2]: > 10.2 µM | AUC [3]: 0.653 | IC50 [3]: 1.68 µM | AUC [4]: 0.753 | IC50 [4]: 0.685 µM | AUC [5]: 0.884 | IC50 [5]: > 16 µM | AUC [6]: 0.902 | IC50 [6]: > 5 µM

RPMI-8226 (myeloma, suspension)
AUC [1]: 0.968 | IC50 [1]: > 16 µM | AUC [2]: 0.891 | IC50 [2]: 9.16 µM | AUC [3]: 0.637 | IC50 [3]: 1.42 µM | AUC [4]: 0.556 | AUC [6]: 0.99 | IC50 [6]: > 5 µM

SK-GT-4 (oesophagus, adherent)
AUC [2]: 0.921 | IC50 [2]: > 10.2 µM | AUC [3]: 0.732 | IC50 [3]: 3.42 µM | AUC [4]: 0.535 | IC50 [4]: 0.16 µM | AUC [5]: 0.863 | IC50 [5]: > 16 µM | AUC [6]: 0.957 | IC50 [6]: > 5 µM

SK-MEL-5 (melanoma, adherent)
AUC [2]: 0.983 | IC50 [2]: > 10.2 µM | AUC [3]: 0.739 | IC50 [3]: 3.57 µM | AUC [4]: 0.698 | IC50 [4]: 0.513 µM | AUC [5]: 0.955 | IC50 [5]: > 16 µM | AUC [6]: 0.909 | IC50 [6]: > 5 µM

SK-MG-1 (glioma, adherent)
AUC [2]: 0.928 | IC50 [2]: > 10.2 µM | AUC [3]: 0.76 | IC50 [3]: 3.55 µM | AUC [4]: 0.617 | IC50 [4]: 0.263 µM | AUC [5]: 0.922 | IC50 [5]: > 16 µM | AUC [6]: 0.986 | IC50 [6]: > 5 µM

SNU-61 (large intestine, adherent)
AUC [2]: 0.89 | IC50 [2]: > 10.2 µM | AUC [3]: 0.98 | IC50 [3]: > 10 µM | AUC [4]: 0.883 | IC50 [4]: > 2 µM | AUC [5]: 0.884 | IC50 [5]: > 16 µM | AUC [6]: 0.971 | IC50 [6]: > 5 µM

SNU-81 (large intestine, adherent)
AUC [2]: 0.981 | IC50 [2]: > 10.2 µM | AUC [3]: 0.859 | IC50 [3]: > 10 µM | AUC [4]: 0.786 | IC50 [4]: 1.2 µM | AUC [5]: 0.879 | IC50 [5]: > 16 µM | AUC [6]: 0.98 | IC50 [6]: > 5 µM

SNU-407 (large intestine, adherent)
AUC [2]: 0.782 | IC50 [2]: 5.06 µM | AUC [3]: 0.698 | IC50 [3]: 2.5 µM | AUC [4]: 0.744 | IC50 [4]: 0.715 µM | AUC [5]: 0.867 | IC50 [5]: > 16 µM | AUC [6]: 0.858 | IC50 [6]: > 5 µM

SNU-C5 (large intestine, adherent)
AUC [2]: 0.949 | IC50 [2]: > 10.2 µM | AUC [3]: 0.695 | IC50 [3]: 2.34 µM | AUC [4]: 0.503 | IC50 [4]: 0.127 µM | AUC [5]: 0.928 | IC50 [5]: > 16 µM | AUC [6]: 0.944 | IC50 [6]: > 5 µM

SU-DHL-5 (B-cell lymphoma, suspension)
AUC [1]: 0.746 | IC50 [1]: 4.05 µM | AUC [2]: 0.627 | IC50 [2]: 1.31 µM | AUC [3]: 0.657 | IC50 [3]: 1.51 µM | AUC [7]: 0.973 | IC50 [7]: > 8 µM | AUC [4]: 0.279 | IC50 [4]: 0.0357 µM | AUC [5]: 0.69 | IC50 [5]: 2.92 µM

SW620 (large intestine, adherent)
AUC [1]: 0.645 | IC50 [1]: 2.39 µM | AUC [2]: 0.874 | IC50 [2]: 8 µM | AUC [3]: 0.641 | IC50 [3]: 1.45 µM | AUC [4]: 0.738 | IC50 [4]: 0.54 µM | AUC [5]: 0.708 | IC50 [5]: 3.55 µM | AUC [6]: 0.989 | IC50 [6]: > 5 µM

T47D (breast, adherent)
AUC [1]: 0.969 | IC50 [1]: > 16 µM | AUC [2]: 0.942 | IC50 [2]: > 10.2 µM | AUC [3]: 0.871 | IC50 [3]: > 10 µM | AUC [4]: 0.978 | IC50 [4]: > 2 µM | AUC [5]: 0.919 | IC50 [5]: > 16 µM | AUC [6]: 0.89 | IC50 [6]: > 5 µM

THP-1 (acute myeloid leukaemia, suspension)
AUC [1]: 0.952 | IC50 [1]: > 16 µM | AUC [2]: 0.784 | IC50 [2]: 3.9 µM | AUC [3]: 0.926 | IC50 [3]: > 10 µM | AUC [4]: 0.697 | IC50 [4]: 0.419 µM | AUC [6]: 0.985 | IC50 [6]: > 5 µM

U-87-MG (glioma, adherent)
AUC [1]: 0.932 | IC50 [1]: > 16 µM | AUC [2]: 0.956 | IC50 [2]: > 10.2 µM | AUC [3]: 0.831 | IC50 [3]: 7.92 µM | AUC [4]: 0.822 | IC50 [4]: 1.45 µM | AUC [5]: 0.938 | IC50 [5]: > 16 µM | AUC [6]: 0.891 | IC50 [6]: > 5 µM

UWB1.289 (ovary, adherent)
AUC [2]: 0.953 | IC50 [2]: > 10.2 µM | AUC [3]: 0.738 | IC50 [3]: 4.3 µM | AUC [4]: 0.761 | IC50 [4]: 1.08 µM | AUC [5]: 0.948 | IC50 [5]: > 16 µM | AUC [6]: 0.95 | IC50 [6]: > 5 µM

YH-13 (glioma, adherent)
AUC [2]: 0.928 | IC50 [2]: > 10.2 µM | AUC [3]: 0.661 | IC50 [3]: 1.8 µM | AUC [4]: 0.553 | IC50 [4]: 0.175 µM | AUC [5]: 0.927 | IC50 [5]: > 16 µM | AUC [6]: 0.985 | IC50 [6]: > 5 µM
